# Test results published in the supplement of paper PMC7238544.
# Counter-ions that a name gives are not always drawn. ± gives the standard deviation of the averaged measurements. Some of the results follow.
# Tests used:
# Conditions in all cases: priming compound concentration 100 µM
# [1] = system: hAMSC donor 1; test: Hoechst total cell count ratio vs vehicle control; higher = more cells (less toxicity)
# [2] = system: hAMSC donor 2; test: as above
# [3] = system: hAMSC donor 1; test: transgenic luciferase activity (RLU/mg protein) fold change vs vehicle control (ratio); higher = more transgene expression
# [4] = system: hAMSC donor 2; test: as above
# [5] = system: hAMSC donor 1; test: transfection efficiency (EGFP+ cells / Hoechst count) fold change vs vehicle control (ratio); hAMSC are human adipose-derived mesenchymal stem cells given an EGFP-luciferase plasmid by lipofection; higher = enhanced transfection
# [6] = system: hAMSC donor 2; test: as above
# 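Wherever Hoechst total cell count ratio vs vehicle control is given: compound added 30 min before Lipofectamine 3000 lipoplex delivery, triplicate-well means expressed against DMSO vehicle control wells of the same 96-well plate.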
# 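Wherever transfection efficiency (EGFP+ cells / Hoechst count) fold change vs vehicle control is given: compounds added 30 min before Lipofectamine 3000 lipoplex transfection, triplicate means relative to DMSO vehicle wells on the same plate, luciferase RLU normalized to BCA total protein.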
# 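Wherever transgenic luciferase activity (RLU/mg protein) fold change vs vehicle control is given: compounds in DMSO added 30 min before Lipofectamine 3000 transfection of pEGFP-Luc in 96-well plates, values are means of triplicate wells over DMSO vehicle wells on the same plate.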
SMILES,Hoechst total cell count ratio [1],Hoechst total cell count ratio [2],transgenic luciferase activity [3],transgenic luciferase activity [4],transfection efficiency [5],transfection efficiency [6]
CCCCCNC(=N)N/N=C/c1c[nH]c2ccc(OC)cc12 [Tegaserod maleate],0.351 ± 0.18,0.134 ± 0.064,0.00156 ± 0.0011,0.000331 ± 6.6e-05,0.47 ± 0.19,0.273 ± 0.21
NC12CC3CC(CC(C3)C1)C2 [Symmetrel],1.42 ± 0.1,1.26 ± 0.4,0.694 ± 0.42,0.463 ± 0.17,0.787 ± 0.15,1.23 ± 0.12
NS(=O)(=O)c1cc(C2(O)NC(=O)c3ccccc32)ccc1Cl (stereo unspecified) [Chlorthalidone],1.42 ± 0.074,0.974 ± 0.18,1.44 ± 0.8,0.82 ± 0.17,0.841 ± 0.21,1.49 ± 0.18
CC(=O)OCC(=O)[C@@]1(O)CC[C@H]2[C@@H]3CCC4=CC(=O)CC[C@]4(C)[C@H]3C(=O)C[C@@]21C [Cortisone acetate],1.41 ± 0.17,1.01 ± 0.18,0.884 ± 0.21,0.625 ± 0.28,1.21 ± 0.082,1 ± 0.28
COc1ccc(/C=C/C(=O)Nc2ccccc2C(=O)O)cc1OC [Tranilast],1.018 ± 0.0046,0.862 ± 0.18,7.87 ± 0.85,4.83 ± 1.1,1.94 ± 1.2,2.51 ± 0.58
CO[C@H]1O[C@@H]2O[C@@]3(C)CC[C@H]4[C@H](C)CC[C@@H]([C@H]1C)[C@@]24OO3 [Artemether],1.97 ± 0.4,1.09 ± 0.026,0.659 ± 0.021,1 ± 0.25,1.09 ± 0.51,0.634 ± 0.068
C[C@@H]1CN(CCCn2c3ccccc3c3ccccc32)C[C@H](C)N1 [Rimcazole dihydrochloride],0.102 ± 0.045,0.11 ± 0.036,0.00687 ± 0.008,0.0101 ± 0.014,0.62 ± 0.15,0.133 ± 0.089
CCC1=C(C)CN(C(=O)NCCc2ccc(S(=O)(=O)NC(=O)N[C@H]3CC[C@H](C)CC3)cc2)C1=O [Glimepiride],1.33 ± 0.099,1.14 ± 0.069,0.721 ± 0.47,0.91 ± 0.15,0.915 ± 0.18,0.853 ± 0.094
O=C(O)CCNC(=O)c1ccc(/N=N/c2ccc(O)c(C(=O)O)c2)cc1 [Balsalazide],1.09 ± 0.087,1.15 ± 0.12,2.24 ± 1.1,1.48 ± 0.5,1.62 ± 0.5,1.04 ± 0.23
CCN(CC)CCOC(=O)c1ccc(N)cc1 [Procaine hydrochloride],1.13 ± 0.17,1.17 ± 0.13,1.01 ± 1,0.683 ± 0.12,1.26 ± 0.072,1.41 ± 0.076
CC[C@H]1OC(=O)[C@H](C)[C@@H](O[C@H]2C[C@@](C)(OC)[C@@H](O)[C@H](C)O2)[C@H](C)[C@@H](O[C@@H]2O[C@H](C)C[C@H](N(C)C)[C@H]2O)[C@](C)(O)C[C@@H](C)CN(C)[C@H](C)[C@@H](O)[C@]1(C)O [Azithromycin],1.04 ± 0.017,1.94 ± 0.16,0.506 ± 0.11,0.226 ± 0.022,0.621 ± 0.14,0.601 ± 0.21
CC(C)NCC(O)COc1cccc2[nH]ccc12 (stereo unspecified) [Pindolol],1.07 ± 0.21,1.34 ± 0.47,0.654 ± 0.031,1.14 ± 0.32,1.27 ± 0.53,1.04 ± 0.34
CN(C)CCCC1(c2ccc(F)cc2)OCc2cc(C#N)ccc21 (stereo unspecified) [Citalopram hydrobromide],1.02 ± 0.27,1.05 ± 0.051,0.442 ± 0.092,0.477 ± 0.07,1.2 ± 0.44,0.921 ± 0.15
CC[N+](C)(C)c1cccc(O)c1 [Edrophonium chloride],1.27 ± 0.063,0.679 ± 0.076,1.56 ± 0.57,0.667 ± 0.25,0.858 ± 0.27,1.1 ± 0.2
C#C[C@]1(O)CC[C@H]2[C@@H]3CCC4=CC(=O)CC[C@@H]4[C@H]3CC[C@@]21C [19-Norethindrone],1.14 ± 0.073,1.01 ± 0.43,0.207 ± 0.18,0.694 ± 0.1,1.19 ± 0.18,1.6 ± 0.097
CC(c1cc2ccccc2s1)N(O)C(N)=O (stereo unspecified) [Zileuton],1.39 ± 0.03,1.25 ± 0.16,1.3 ± 0.35,0.8 ± 0.28,0.955 ± 0.14,1.19 ± 0.061
Nc1nc2ccc(Cl)cc2c2nc(-c3ccco3)nn12,2.2 ± 0.21,1.58 ± 0.053,0.272 ± 0.064,0.491 ± 0.15,1.52 ± 0.57,1 ± 0.29
Cn1ccnc1S [Methimazole],1.21 ± 0.23,1.52 ± 0.23,3.25 ± 0.057,1.54 ± 0.65,1.74 ± 0.31,1.46 ± 0.23
Cc1ncc([N+](=O)[O-])n1CC(O)CCl (stereo unspecified) [Ornidazole],1.29 ± 0.12,1.03 ± 0.25,1.17 ± 0.037,0.985 ± 0.71,0.974 ± 0.29,0.886 ± 0.12
COc1c(N2C[C@@H]3CCCN[C@@H]3C2)c(F)cc2c(=O)c(C(=O)O)cn(C3CC3)c12 [Moxifloxacin hydrochloride],2.26 ± 0.028,0.992 ± 0.11,0.892 ± 0.61,1.46 ± 0.16,0.565 ± 0.12,0.802 ± 0.029
CCc1oc2ccccc2c1C(=O)c1cc(Br)c(O)c(Br)c1 [Benzbromarone],1.4 ± 0.12,1.14 ± 0.13,0.281 ± 0.082,0.647 ± 0.076,0.951 ± 0.18,0.859 ± 0.098
CC(C)Cc1ccc(C(C)C(=O)O)cc1 (stereo unspecified) [Ibuprofen],0.894 ± 0.18,1.37 ± 0.37,1.06 ± 0.59,0.566 ± 0.39,0.836 ± 0.24,0.803 ± 0.26
O=C(NCCN1CCOCC1)c1ccc(Cl)cc1 [Moclobemide],1.29 ± 0.12,1.13 ± 0.15,0.512 ± 0.34,0.855 ± 0.059,1.12 ± 0.57,1.03 ± 0.17

SMILES,Hoechst total cell count ratio [1],Hoechst total cell count ratio [2],transgenic luciferase activity [3],transgenic luciferase activity [4],transfection efficiency [5],transfection efficiency [6]
Nc1nc(O)c2ncn(CCC(CO)CO)c2n1 [Penciclovir],0.817 ± 0.034,1.02 ± 0.094,0.788 ± 0.24,0.791 ± 0.28,1.33 ± 0.19,1.56 ± 0.26
CC(C)NCC(O)COc1ccc(CCOCC2CC2)cc1 (stereo unspecified) [Betaxolol hydrochloride],1.75 ± 0.34,1.31 ± 0.04,1.33 ± 0.46,1.15 ± 0.24,1.01 ± 0.22,0.936 ± 0.19
Nc1nc(Cl)nc2c1ncn2[C@H]1C[C@H](O)[C@@H](CO)O1 [Cladribine],0.628 ± 0.056,0.899 ± 0.25,0.698 ± 0.11,0.492 ± 0.1,1.91 ± 0.027,0.901 ± 0.28
C[C@]12C=CC(=O)C=C1CC[C@@H]1[C@@H]2[C@@H](O)C[C@@]2(C)[C@H]1CC[C@]2(O)C(=O)COC(=O)CCC(=O)O [Prednisolone sodium succinate],1.81 ± 0.23,1.36 ± 0.15,4.5 ± 2,0.744 ± 0.25,1.53 ± 0.31,1.54 ± 0.096
COc1ccc(C2CNC(=O)C2)cc1OC1CCCC1 (stereo unspecified) [Rolipram],1.15 ± 0.23,1.1 ± 0.21,0.827 ± 0.06,0.879 ± 0.31,1.45 ± 0.47,1.02 ± 0.22
CNCC[C@@H](Oc1ccccc1C)c1ccccc1 [Atomoxetine hydrochloride],1.09 ± 0.12,0.88 ± 0.068,1.58 ± 1.5,0.82 ± 0.13,1.33 ± 0.19,1.25 ± 0.15
COCc1c(C(C)C)nc(C(C)C)c(/C=C/[C@@H](O)C[C@@H](O)CC(=O)O)c1-c1ccc(F)cc1 [Cerivastatin sodium],0.521 ± 0.22,0.642 ± 0.085,0.891 ± 0.51,0.714 ± 0.13,3.14 ± 0.94,1.45 ± 0.065
NC(=O)c1ncn([C@@H]2O[C@H](CO)[C@@H](O)[C@H]2O)n1 [Ribavirin],1.08 ± 0.06,1.15 ± 0.14,4.24 ± 1.5,2.83 ± 0.79,1.13 ± 0.23,1.57 ± 0.3
NS(=O)(=O)c1cc2c(cc1Cl)N=CNS2(=O)=O [Chlorothiazide],1.36 ± 0.17,1.08 ± 0.03,0.92 ± 0.6,1.01 ± 0.72,1.2 ± 0.08,1.2 ± 0.22
C=C(CC)C(=O)c1ccc(OCC(=O)O)c(Cl)c1Cl [Ethacrynic acid],0.785 ± 0.16,0.51 ± 0.16,1.21 ± 0.56,0.884 ± 0.19,1.9 ± 0.22,1.16 ± 0.26
C[C@](N)(Cc1ccc(O)cc1)C(=O)O [alpha-Methyl-L-tyrosine],1.4 ± 0.086,1.48 ± 0.039,0.691 ± 0.15,0.669 ± 0.097,0.554 ± 0.17,0.911 ± 0.044
CC[N+](C)(CC)CCOC(=O)C(O)(c1ccccc1)C1CCCCC1 (stereo unspecified) [Oxyphenonium bromide],1.57 ± 0.31,0.976 ± 0.018,0.422 ± 0.032,0.655 ± 0.21,1.17 ± 0.07,0.902 ± 0.11
CCN(CC)CC1CCCCN1CC(=O)N1c2ccccc2C(=O)Nc2cccnc21 (stereo unspecified) [Otenzepad],1.2 ± 0.19,1.02 ± 0.051,0.188 ± 0.069,0.439 ± 0.17,0.89 ± 0.11,0.835 ± 0.065
C=CC1=C(C(=O)O)N2C(=O)[C@@H](NC(=O)/C(=N\OCC(=O)O)c3csc(N)n3)[C@H]2SC1 [Cefixime trihydrate],1.26 ± 0.2,0.677 ± 0.18,0.146 ± 0.14,0.3 ± 0.029,0.229 ± 0.024,0.711 ± 0.2
O=C(NCC1CCCCN1)c1cc(OCC(F)(F)F)ccc1OCC(F)(F)F (stereo unspecified) [Flecainide hydrochloride],1.65 ± 0.18,1.06 ± 0.057,0.709 ± 0.24,0.548 ± 0.031,0.75 ± 0.23,0.79 ± 0.053
CC1COc2c(N3CCN(C)CC3)c(F)cc3c(=O)c(C(=O)O)cn1c23 (stereo unspecified) [Ofloxacin],1.05 ± 0.1,1.77 ± 0.085,0.951 ± 0.18,0.734 ± 0.14,1.02 ± 0.18,0.811 ± 0.16
CCN(Cc1ccncc1)C(=O)C(CO)c1ccccc1 (stereo unspecified) [Tropicamide],1.21 ± 0.076,1.76 ± 0.16,1.53 ± 1.4,0.528 ± 0.027,1.35 ± 0.42,0.848 ± 0.18
Oc1c(Cl)cc(Cl)c(Cl)c1Cc1c(O)c(Cl)cc(Cl)c1Cl [Hexachlorophene],1.57 ± 0.2,1.22 ± 0.15,0.183 ± 0.15,0.585 ± 0.21,0.145 ± 0.023,0.322 ± 0.11
CC(C)NCC(O)COc1ccc(COCCOC(C)C)cc1 (stereo unspecified) [Bisoprolol fumarate],1.22 ± 0.12,1.01 ± 0.13,0.437 ± 0.094,0.743 ± 0.15,1.15 ± 0.22,0.783 ± 0.16
O=C(N[C@H](CO)[C@H](O)c1ccc([N+](=O)[O-])cc1)C(Cl)Cl [Chloramphenicol],1.03 ± 0.031,1.2 ± 0.2,12.2 ± 2.6,2.88 ± 0.6,2.1 ± 0.15,1.64 ± 0.38
CC[C@@H]1C(=O)OC[C@@H]1Cc1cncn1C [Pilocarpine hydrochloride],1.35 ± 0.26,1.04 ± 0.054,0.594 ± 0.58,0.596 ± 0.075,1.29 ± 0.18,0.82 ± 0.077
Oc1c(Cl)cc(Cl)c2cccnc12 [Chloroxine],0.604 ± 0.035,0.169 ± 0.042,2.19 ± 0.93,0.393 ± 0.35,0.754 ± 0.36,1.35 ± 0.96
O=C(O)c1cc(/N=N/c2ccc(S(=O)(=O)Nc3ccccn3)cc2)ccc1O [Sulfasalazine],1.57 ± 0.039,1.2 ± 0.23,1.48 ± 0.78,0.237 ± 0.036,0.657 ± 0.13,1 ± 0.081
